Laboratory results taken from US20220332848A1 (published 2022).

Tests used:
CD47 = CD47 (UniProt Q08722); test: FACS binding CHO-K1 cells expressing CD47
human CTLA-4 = human CTLA-4 (human, UniProt P16410 36-223); test: FACS binding CHO-K1 cells expressing human CTLA-4
Sequence of human CTLA-4 (P16410 36-223): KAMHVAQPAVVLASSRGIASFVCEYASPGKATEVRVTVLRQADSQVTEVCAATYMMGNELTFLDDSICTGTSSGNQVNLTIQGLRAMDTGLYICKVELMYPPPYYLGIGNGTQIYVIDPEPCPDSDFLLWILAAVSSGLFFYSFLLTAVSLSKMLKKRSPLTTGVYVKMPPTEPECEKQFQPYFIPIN

Sequence of CD47 (Q08722 19-323): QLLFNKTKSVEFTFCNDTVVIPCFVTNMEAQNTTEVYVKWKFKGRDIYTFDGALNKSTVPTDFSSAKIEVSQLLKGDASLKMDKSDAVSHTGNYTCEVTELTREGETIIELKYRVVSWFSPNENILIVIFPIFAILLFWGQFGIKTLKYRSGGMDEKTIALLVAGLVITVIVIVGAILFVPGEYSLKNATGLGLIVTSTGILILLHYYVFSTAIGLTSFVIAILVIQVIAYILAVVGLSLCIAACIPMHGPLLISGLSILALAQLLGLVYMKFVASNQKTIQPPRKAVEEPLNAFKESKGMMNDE

B1: Fc fusion protein sdAb-CTLA4-IgG4PE (Fc fusion)
chain: EVQLVESGGGLVQPGGSLRLSCAASGYTYSRHCLGWFRQAPGKGREAVSTIDSDGSTSYADSVKGRFTISRDNAKNTLYLQMNSLRPEDTAVYYCAIGPNPRYCSGAPNTRGAEHYFGYWGQGTLVTVSS[letters of human IgG4 Fc with changes left out]
EC50 (CD47): ~1.4 nM
EC50 (human CTLA-4): 2.21 nM
